# Test results from the supplement of paper PMC8728848.
# This is one part of the list.
# B1: MpL2 (Macrolepiota procera) (protein)
# chain: MSTQVSSGQTYKITNVKAGTVIDLSGEDNKSIIGYPYHSGKNQQWTFNWTGKAWTLRSASSGSYLGIEGTPADGTRLVAVNDPFEWHIWRDEANENAFRIFVPFTNYNLRLSGYGDTTPGTPVQLWWTWEGLHQTWTIDRP
# Assays:
# Experiment in all cases: glycan array binding signal (z-score within array); higher = stronger binding
# Settings in all cases: glycan notation: IUPAC condensed, linker removed; mutation: D109R
# [1] = molecular target: GlcNAc(b1-3)Gal(b1-4)GlcNAc(b1-3)Gal(b1-4)GlcNAc(b1-3)Gal(b1-4)GlcNAc(b1-3)Gal(b1-4)GlcNAc(b1-2)[GlcNAc(b1-3)Gal(b1-4)GlcNAc(b1-3)Gal(b1-4)GlcNAc(b1-3)Gal(b1-4)GlcNAc(b1-3)Gal(b1-4)GlcNAc(b1-6)]Man(a1-6)[GlcNAc(b1-3)Gal(b1-4)GlcNAc(b1-3)Gal(b1-4)GlcNAc(b1-3)Gal(b1-4)GlcNAc(b1-3)Gal(b1-4)GlcNAc(b1-2)Man(a1-3)]Man(b1-4)GlcNAc(b1-4)[Fuc(a1-6)]GlcNAc
# Method in brief: (§1)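 The binding signal is a Z-score computed within each array and averaged over linkers. Arrays of the same protein sequence at different concentrations or buffers were also averaged together. Data originate from 3228 arrays in the Consortium for Functional Glycomics database, kept only where the protein sequence was available.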
# [2] = molecular target: GlcNAc(b1-3)Gal(b1-4)GlcNAc(b1-3)Gal(b1-4)GlcNAc(b1-3)GalNAc
# Method in brief: as §1
# [3] = molecular target: GlcNAc(b1-3)Gal(b1-4)GlcNAc(b1-3)GalNAc
# Method in brief: as §1
# [4] = molecular target: GlcNAc(b1-3)Gal(b1-4)GlcNAc(b1-3)[GlcNAc(b1-3)Gal(b1-4)GlcNAc(b1-3)]GalNAc
# Method in brief: as §1
# [5] = molecular target: GlcNAc(b1-3)Gal(b1-4)GlcNAc(b1-6)[Gal(b1-3)]GalNAc
# Method in brief: as §1
# [6] = molecular target: GlcNAc(b1-3)Gal(b1-4)GlcNAc(b1-6)[GlcNAc(b1-3)Gal(b1-3)]GalNAc
# Method in brief: as §1
# [7] = molecular target: GlcNAc(b1-3)Gal(b1-4)GlcNAc(b1-6)[GlcNAc(b1-3)]Gal(b1-4)GlcNAc
# Method in brief: as §1
# [8] = molecular target: GlcNAc(b1-3)GalNAc
# Method in brief: as §1
# [9] = molecular target: GlcNAc(b1-3)Man
# Method in brief: as §1
# [10] = molecular target: GlcNAc(b1-3)[GlcNAc(b1-4)][GlcNAc(b1-6)]GlcNAc
# Method in brief: as §1
# [11] = molecular target: GlcNAc(b1-3)[GlcNAc(b1-6)]Gal(b1-4)GlcNAc
# Method in brief: as §1
# [12] = molecular target: GlcNAc(b1-3)[GlcNAc(b1-6)]GalNAc
# Method in brief: as §1
# [13] = molecular target: GlcNAc(b1-4)Gal(b1-4)GlcNAc
# Method in brief: as §1
# [14] = molecular target: GlcNAc(b1-4)GlcNAc
# Method in brief: as §1
# [15] = molecular target: GlcNAc(b1-4)GlcNAc(b1-4)GlcNAc
# Method in brief: as §1
# [16] = molecular target: GlcNAc(b1-4)GlcNAc(b1-4)GlcNAc(b1-4)GlcNAc(b1-4)GlcNAc
# Method in brief: as §1
# [17] = molecular target: GlcNAc(b1-4)GlcNAc(b1-4)GlcNAc(b1-4)GlcNAc(b1-4)GlcNAc(b1-4)GlcNAc
# Method in brief: as §1
# [18] = molecular target: GlcNAc(b1-4)[GlcNAc(b1-6)]GalNAc
# Method in brief: as §1
# [19] = molecular target: GlcNAc(b1-6)Gal(b1-4)GlcNAc
# Method in brief: as §1
# [20] = molecular target: GlcNAc(b1-6)GalNAc
# Method in brief: as §1
# [21] = molecular target: GlcNAc6S(b1-3)Gal(b1-4)GlcNAc
# Method in brief: as §1
# [22] = molecular target: Kdn(a2-3)Gal(b1-3)GalNAc
# Method in brief: as §1
# [23] = molecular target: Kdn(a2-3)Gal(b1-3)GlcNAc
# Method in brief: as §1
# [24] = molecular target: Kdn(a2-3)Gal(b1-4)Glc
# Method in brief: as §1
# [25] = molecular target: Kdn(a2-3)Gal(b1-4)GlcNAc
# Method in brief: as §1
# [26] = molecular target: Kdn(a2-3)Gal(b1-4)[Fuc(a1-3)]GlcNAc
# Method in brief: as §1
# [27] = molecular target: Kdn(a2-6)Gal(b1-4)GlcNAc
# Method in brief: as §1
# [28] = molecular target: Man(a1-2)Man(a1-2)Man(a1-3)Man
# Method in brief: as §1
# [29] = molecular target: Man(a1-2)Man(a1-2)Man(a1-6)[Man(a1-3)]Man
# Method in brief: as §1
# [30] = molecular target: Man(a1-2)Man(a1-3)Man
# Method in brief: as §1
# [31] = molecular target: Man(a1-2)Man(a1-3)[Man(a1-2)Man(a1-6)]Man
# Method in brief: as §1
# [32] = molecular target: Man(a1-2)Man(a1-3)[Man(a1-2)Man(a1-6)]Man(a1-6)[Man(a1-2)Man(a1-2)Man(a1-3)]Man
# Method in brief: as §1
# [33] = molecular target: Man(a1-2)Man(a1-3)[Man(a1-2)Man(a1-6)]Man(a1-6)[Man(a1-2)Man(a1-2)Man(a1-3)]Man(b1-4)GlcNAc(b1-4)GlcNAc
# Method in brief: as §1
# [34] = molecular target: Man(a1-2)Man(a1-3)[Man(a1-6)]Man(a1-6)[Man(a1-2)Man(a1-3)]Man(b1-4)GlcNAc(b1-4)GlcNAc
# Method in brief: as §1
# [35] = molecular target: Man(a1-2)Man(a1-6)[Man(a1-3)]Man(a1-6)[Man(a1-2)Man(a1-2)Man(a1-3)]Man
# Method in brief: as §1
# [36] = molecular target: Man(a1-2)Man(a1-6)[Man(a1-3)]Man(a1-6)[Man(a1-2)Man(a1-2)Man(a1-3)]Man(b1-4)GlcNAc(b1-4)GlcNAc
# Method in brief: as §1
# [37] = molecular target: Man(a1-3)[Man(a1-6)]Man
# Method in brief: as §1
# [38] = molecular target: Man(a1-3)[Man(a1-6)]Man(a1-6)[Man(a1-2)Man(a1-3)]Man(b1-4)GlcNAc(b1-4)GlcNAc
# Method in brief: as §1
# [39] = molecular target: Man(a1-3)[Man(a1-6)]Man(a1-6)[Man(a1-3)]Man
# Method in brief: as §1
# [40] = molecular target: Man(a1-3)[Man(a1-6)]Man(a1-6)[Man(a1-3)]Man(b1-4)GlcNAc(b1-4)GlcNAc
# Method in brief: as §1
# [41] = molecular target: Man(a1-3)[Man(a1-6)]Man(b1-4)GlcNAc(b1-4)GlcNAc
# Method in brief: as §1
# [42] = molecular target: Man(a1-3)[Man(a1-6)]Man(b1-4)GlcNAc(b1-4)[Fuc(a1-6)]GlcNAc
# Method in brief: as §1
# [43] = molecular target: Man(a1-6)Man
# Method in brief: as §1
# [44] = molecular target: Man(b1-4)GlcNAc
# Method in brief: as §1
# [45] = molecular target: MurNAc(b1-4)GlcNAc
# Method in brief: as §1
binder,measurement,setting,value
B1,glycan array binding signal (z-score),[1],-0.197
same,glycan array binding signal (z-score),[2],-0.238
same,glycan array binding signal (z-score),[3],-0.238
same,glycan array binding signal (z-score),[4],-0.25
same,glycan array binding signal (z-score),[5],-0.258
same,glycan array binding signal (z-score),[6],-0.256
same,glycan array binding signal (z-score),[7],-0.269
same,glycan array binding signal (z-score),[8],-0.271
same,glycan array binding signal (z-score),[9],-0.258
same,glycan array binding signal (z-score),[10],-0.271
same,glycan array binding signal (z-score),[11],-0.252
same,glycan array binding signal (z-score),[12],-0.268
same,glycan array binding signal (z-score),[13],-0.208
same,glycan array binding signal (z-score),[14],-0.248
same,glycan array binding signal (z-score),[15],-0.248
same,glycan array binding signal (z-score),[16],-0.246
same,glycan array binding signal (z-score),[17],-0.258
same,glycan array binding signal (z-score),[18],-0.257
same,glycan array binding signal (z-score),[19],-0.168
same,glycan array binding signal (z-score),[20],-0.256
same,glycan array binding signal (z-score),[21],0.055
same,glycan array binding signal (z-score),[22],-0.22
same,glycan array binding signal (z-score),[23],-0.256
same,glycan array binding signal (z-score),[24],-0.267
same,glycan array binding signal (z-score),[25],-0.245
same,glycan array binding signal (z-score),[26],-0.238
same,glycan array binding signal (z-score),[27],-0.25
same,glycan array binding signal (z-score),[28],-0.249
same,glycan array binding signal (z-score),[29],-0.244
same,glycan array binding signal (z-score),[30],-0.278
same,glycan array binding signal (z-score),[31],-0.3
same,glycan array binding signal (z-score),[32],-0.258
same,glycan array binding signal (z-score),[33],-0.207
same,glycan array binding signal (z-score),[34],-0.274
same,glycan array binding signal (z-score),[35],-0.295
same,glycan array binding signal (z-score),[36],-0.217
same,glycan array binding signal (z-score),[37],-0.237
same,glycan array binding signal (z-score),[38],-0.071
same,glycan array binding signal (z-score),[39],-0.246
same,glycan array binding signal (z-score),[40],-0.249
same,glycan array binding signal (z-score),[41],-0.243
same,glycan array binding signal (z-score),[42],-0.24
same,glycan array binding signal (z-score),[43],-0.247
same,glycan array binding signal (z-score),[44],-0.226
same,glycan array binding signal (z-score),[45],-0.259
